Test results reported in patent US20260184782A1.

T1: TIGIT (UniProt Q495A1)
T1 sequence (looked up): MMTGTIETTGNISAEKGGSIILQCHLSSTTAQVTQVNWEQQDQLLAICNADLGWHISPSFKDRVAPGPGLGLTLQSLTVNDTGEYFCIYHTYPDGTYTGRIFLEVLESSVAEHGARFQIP


Biological target: T1, TIGIT
Assay: ELISA

| Binder | ELISA |
| --- | --- |
| TIGIT-29-17 VHH-Fc (Fc fusion) EVQLVESGGGLVQAGGSLRLSCAASGSTLSIYAMGWFRQAPGKERELVATISSGGGSTYYADSVKGRFTISADNAKNTVYLQMNSLKPEDTAVYYCAAGSVYGRNYWGQGTQVTVSSGGGGS[in this place human IgG1 Fc with C220S (EU numbers)] | 3.2 |
| TIGIT-29-19 VHH-Fc (Fc fusion) EVQLVESGGGLVQAGGSLRLSCAASGRTFSSYAMGWFRQAPGKEREFVATISGSFGRTYYADSVKGRFTISADNAKNTVYLQMNSLKPEDTAVYYCAAGAWTIYEYDYWGQGTQVTVSSGGGGS[in this place human IgG1 Fc with C220S (EU numbers)] | 9 |
| TIGIT-29-32 VHH-Fc (Fc fusion) EVQLVESGGGLVQAGGSLRLSCAASGSTFDSYAMGWFRQAPGKEREGVAAITTSGSSTYYADSVKGRFTISADNAKNTVYLQMNSLKPEDTAVYYCAARGGVRSGSPGTYNYWGQGTQVTVSSGGGGS[in this place human IgG1 Fc with C220S (EU numbers)] | 3.7 |
| TIGIT-29-38 VHH-Fc (Fc fusion) EVQLVESGGGLVQAGGSLRLSCAASGSTFSSYAMGWFRQAPGKEREFVSAISRNGASTSYADSVKGRFTISADNAKNTVYLQMNSLKPEDTAVYYCAAAGTRFDYWGQGTQVTVSSGGGGS[in this place human IgG1 Fc with C220S (EU numbers)] | 3.4 |
| TIGIT-29-41 VHH-Fc (Fc fusion) EVQLVESGGGLVQAGGSLRLSCAASGRTFSTNAMGWFRQAPGKEREWVTAITTSGGNTYYADSVKGRFTISADNAKNTVYLQMNSLKPEDTAVYYCAARDETYGTYDYWGQGTQVTVSSGGGGS[in this place human IgG1 Fc with C220S (EU numbers)] | 7.7 |
| TIGIT-29-43 VHH-Fc (Fc fusion) EVQLVESGGGLVQAGGSLRLSCAASGRTFDSYAMGWFRQAPGKEREWVSAISWSGSSTYYADSVKGRFTISADNAKNTVYLQMNSLKPEDTAVYYCAARGGYGRYDSWGQGTQVTVTSGGGGS[in this place human IgG1 Fc with C220S (EU numbers)] | 4.8 |
| TIGIT-30-35 VHH-Fc (Fc fusion) EVQLVESGGGLVQAGGSLRLSCAASGNIDRLYAMGWFRQAPGKEREGISLITSDDGSTYYADSVKGRFTISADNAKNTVYLQMNSLKPEDTAVYYCASSGPADARNGERWAWGQGTQVTVSSGGGGS[in this place human IgG1 Fc with C220S (EU numbers)] | 3.3 |
| TIGIT-30-42 VHH-Fc (Fc fusion) EVQLVESGGGLVQAGGSLRLSCAASGITITTEVMGWFRQAPGKEREYVAAIHWNGDSTAYADSVKGRFTISADNAKNTVYLQMNSLKPEDTAVYYCAQVSQWRAWGQGTQVTVSSGGGGS[in this place human IgG1 Fc with C220S (EU numbers)] | 6.3 |
| TIGIT-30-48 VHH-Fc (Fc fusion) EVQLVESGGGLVQAGGSLRLSCAASGFPVNRYSMGWFRQAPGKERELVSAIGWSGASTYYADSVKGRFTISADNAKNTVYLQMNSLKPEDTAVYYCAADFWLARLRVADDYDWGQGTQVTVSSGGGGS[in this place human IgG1 Fc with C220S (EU numbers)] | 3.6 |
| TIGIT-30-50 VHH-Fc (Fc fusion) EVQLVESGGGLVQAGGSLRLSCAASGRSFSNYVMGWFRQAPGKERERVATITSGGLTVYADSVKGRFTISADNAKNTVYLQMNSLKPEDTAVYYCALYRVNWGQGTQVTVSSGGGGS[in this place human IgG1 Fc with C220S (EU numbers)] | 5.6 |
| TIGIT-31-04 (VHH-Fc) (Fc fusion) EVQLVESGGGLVQPGGSLRLSCAASGFPVNRYWMGWFRQAPGKERELVATITSGGSTNYADSVKGRFTISADNSKNTAYLQMNSLKPEDTAVYYCAADVWYGSTWRNWGQGTLVTVSSGGGGS[in this place human IgG1 Fc with C220S (EU numbers)] | 3.2 |
| TIGIT-31-05 (VHH-Fc) (Fc fusion) EVQLVESGGGLVQPGGSLRLSCAASGRTFGDYIMGWFRQAPGKEREFVATISRGGGSTYVDSVKGRFTISADNSKNTAYLQMNSLKPEDTAVYYCAAVFSRGPLTWGQGTLVTVSSGGGGS[in this place human IgG1 Fc with C220S (EU numbers)] | 3.8 |
| TIGIT-31-12 (VHH-Fc) (Fc fusion) EVQLVESGGGLVQPGGSLRLSCAASGFTFSRYWMGWFRQAPGKEREAVASITSGGSTYYADSVKGRFTISADNSKNTAYLQMNSLKPEDTAVYYCAADVWYGSTWRNWGQGTLVTVSSGGGGS[in this place human IgG1 Fc with C220S (EU numbers)] | 5.3 |
| TIGIT-31-37 (VHH-Fc) (Fc fusion) EVQLVESGGGLVQPGGSLRLSCAASGSIFSINSMGWFRQAPGKEREFVAALSWIIGSTYYADSVKGRFTISADNSKNTAYLQMNSLKPEDTAVYYCAVNGRWRSWSSQRDWGQGTLVTVSSGGGGS[in this place human IgG1 Fc with C220S (EU numbers)] | 5.7 |
| TIGIT-31-40 (VHH-Fc) (Fc fusion) EVQLVESGGGLVQPGGSLRLSCAASGSTLRDYVMGWFRQAPGKERELVSSISRSGTTMFADSVKGRFTIIADNSKNTAYLLMNSLKPQDTAVYYCAAVFSRGLLTCGQGTLVTVSSGGGGS[in this place human IgG1 Fc with C220S (EU numbers)] | 9.4 |
| TIGIT-31-43 (VHH-Fc) (Fc fusion) EVQLVESGGGLVQPGGSLRLSCAASGGTFSAFPMGWFRQAPGKERELVAAISSGGTTYYADSVKGRFTISADNSKNTAYLQMNSLKPEDTAVYYCAAQGGVLSAWDWGQGTLLTVSSGGGGS[in this place human IgG1 Fc with C220S (EU numbers)] | 4.9 |
| TIGIT-31-49 (VHH-Fc) (Fc fusion) EVQLVESGGGLVQPGGSLRLSCAASGFDFSVSWMGWFRQAPGKERELVARISSGGELPYYADSVKGRFTISADNSKNTAYLQMNSLKPKHTAVYYCAARPNTRPGSMWGQGTLVTVSSGGGGS[in this place human IgG1 Fc with C220S (EU numbers)] | 7.3 |
| TIGIT-31-53 (VHH-Fc) (Fc fusion) EVQLVESGGGLVQPGGSLRLSCAASGLTISTYNMGWFRQAPGKERELVSAIGWSGASTYYADSVKGRFTISADNSKNTAYLQMNSLKPEDTAVYYCAAFRGRMYDWGQGTLVTVSSGGGGS[in this place human IgG1 Fc with C220S (EU numbers)] | 3.2 |
